# Assay results published in patent publication US8044100B2, “Methods and compositions for treating amyloid-related diseases” (Bellus Health Inc., priority 2004, dated 2011).
# Some of these results come from one statement about several compounds together.
# Molecular target: Aβ40 (Homo sapiens, UniProt P05067)
# Experiment: Mass spectrometry (MS) assay for binding to soluble Aβ40
# Conditions: 150 μM test compound and 30 μM solubilized Aβ40, pH 7.4
# Aβ40, sequence (P05067 672-711 limits assumed): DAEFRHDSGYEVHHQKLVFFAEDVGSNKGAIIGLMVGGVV
row,Structure (SMILES),Aβ binding (%)
1,"Cc1ccc(C(O)C(CCN)S(=O)(=O)O)s1 (stereo not drawn) [Compound N63, 4-amino-1-hydroxy-1-(5-methylthien-2-yl)-2-butanesulfonic acid]",40-69%
2,"CC(C)(NCCCS(=O)(=O)O)c1ccc(C(F)(F)F)cc1 [Compound N64, 3-(4-trifluoromethylphenyl-2-propylamino)-1-propanesulfonic acid]",≧70%
3,"CCC(C)(NCCCS(=O)(=O)O)c1ccccc1 (stereo not drawn) [Compound N65, 3-(2-phenyl-2-butylamino)-1-propanesulfonic acid]",≧70%
4,"COc1ccc(C(C)(C)NCCCS(=O)(=O)O)cc1 [Compound N66, 3-(4-methoxyphenyl-2-propylamino)-1-propanesulfonic acid]",≧70%
5,"CC(CCN[C@@H]1CCc2ccccc21)S(=O)(=O)O (stereo partly drawn) [Compound N69, 4-[(1R)-indan-1-ylamino]-2-butanesulfonic acid]",40-69%
6,"CC(CCN[C@H]1CCc2ccccc21)S(=O)(=O)O (stereo partly drawn) [Compound N70, 4-[(1S)-indan-1-ylamino]-2-butanesulfonic acid]",40-69%
7,"NCCC(Cc1cc2ccccc2s1)S(=O)(=O)O (stereo not drawn) [Compound N71, 4-amino-1-(1-benzothien-2-yl)-2-butanesulfonic acid]",40-69%
8,"COC(=O)c1ccsc1NCCCS(=O)(=O)O [Compound N72, 3-{[3-(methoxycarbonyl)thien-2-yl]amino}-1-propanesulfonic acid]",40-69%
9,"CC(C)C[C@@H](N)CCS(=O)(=O)O [Compound N73, (3R)-3-amino-5-methylhexane-1-sulfonic acid]",≧70%
10,"CC(C)C[C@@H](N)/C=C/S(=O)(=O)O [Compound N74, (1E,3R)-3-amino-5-methylhex-1-ene-1-sulfonic acid]",≧70%
11,"COc1ccc2c(c1OC)CCC2NCCCS(=O)(=O)O (stereo not drawn) [Compound N77, 3-[(4,5-dimethoxyinadan-1-yl)amino)propane-1-sulfonic acid]",40-69%
12,"CC(C)(C)C(CN)CS(=O)(=O)O (stereo not drawn) [Compound N78, 2-(aminomethyl)-3,3-dimethylbutane-1-sulfonic acid]",≧70%
13,"CC(C)C[C@H](N)/C=C/S(=O)(=O)O [Compound N79, (1E,3S)-3-amino-5-methylhex-1-ene-1-sulfonic acid]",≧70%
14,"CC(C)C[C@H](N)CCS(=O)(=O)O [Compound N82, (3S)-3-amino-5-methylhexane-1-sulfonic acid]",40-69%
15,"NCCC(Cc1cccs1)S(=O)(=O)O (stereo not drawn) [Compound N84, 4-amino-1-(2-thienyl)-2-butanesulfonic acid]",40-69%
16,"NCCC(Cc1cccs1)(Cc1cccs1)S(=O)(=O)O [Compound N85, 4-amino-1-(2-thienyl)-2-(2-thienylmethyl)-2-butanesulfonic acid]",40-69%
17,"CC(CCNC(C)(C)c1cccs1)S(=O)(=O)O (stereo not drawn) [Compound N87, 4-[2-(2-thien-2-ylpropyl)amino]-2-butanesulfonic acid]",40-69%
18,"CCC(CC)(CC)NCCCS(=O)(=O)O [NM, 3-[(1,1-diethylpropyl)amino]-1-propanesulfonic acid]",40-69%
19,"CC(C)CC(C)NCCCS(=O)(=O)O (stereo not drawn) [NP, 3-[(1,3-dimethylbutyl)amino]-1-propanesulfonic acid]",40-69%
20,"CC[C@@H](C)NCCCS(=O)(=O)O [OQ, (R)-(−)-3-(1-methylpropylamino)-1-propanesulfonic acid]",40-69%
21,"CC[C@H](C)NCCCS(=O)(=O)O [PJ, (S)-(+)-3-(1-methylpropylamino)-1-propanesulfonic acid]",40-69%
22,"COc1ccc(C(=O)CNCCCS(=O)(=O)O)cc1 [QD, 3-{[2-(4-methoxyphenyl)-2-oxoethyl]amino}-1-propanesulfonic acid]",40-69%

# Test system: SH-SY5Y cells
# Experiment: Neuroprotection: Aβ42-induced cell death in SH-SY5Y cells, Hoechst staining
# Type: cell-based, human
# Conditions: 12 μM Aβ1-42, 240 μM compound (1:20 Aβ:drug ratio), 24 hours
row,Structure (SMILES),Inhibition of Aβ-induced toxicity (%)
1,"Cc1ccc(C(O)C(CCN)S(=O)(=O)O)s1 (stereo not drawn) [Compound N63, 4-amino-1-hydroxy-1-(5-methylthien-2-yl)-2-butanesulfonic acid]",<20%
2,"CC(C)(NCCCS(=O)(=O)O)c1ccc(C(F)(F)F)cc1 [Compound N64, 3-(4-trifluoromethylphenyl-2-propylamino)-1-propanesulfonic acid]",<20%
3,"CCC(C)(NCCCS(=O)(=O)O)c1ccccc1 (stereo not drawn) [Compound N65, 3-(2-phenyl-2-butylamino)-1-propanesulfonic acid]",<20%
4,"COc1ccc(C(C)(C)NCCCS(=O)(=O)O)cc1 [Compound N66, 3-(4-methoxyphenyl-2-propylamino)-1-propanesulfonic acid]",<20%
5,"CC(CCN[C@@H]1CCc2ccccc21)S(=O)(=O)O (stereo partly drawn) [Compound N69, 4-[(1R)-indan-1-ylamino]-2-butanesulfonic acid]",>40%
6,"CC(CCN[C@H]1CCc2ccccc21)S(=O)(=O)O (stereo partly drawn) [Compound N70, 4-[(1S)-indan-1-ylamino]-2-butanesulfonic acid]",<20%
7,"NCCC(Cc1cc2ccccc2s1)S(=O)(=O)O (stereo not drawn) [Compound N71, 4-amino-1-(1-benzothien-2-yl)-2-butanesulfonic acid]",<20%
8,"COC(=O)c1ccsc1NCCCS(=O)(=O)O [Compound N72, 3-{[3-(methoxycarbonyl)thien-2-yl]amino}-1-propanesulfonic acid]",<20%
9,"CC(C)C[C@@H](N)CCS(=O)(=O)O [Compound N73, (3R)-3-amino-5-methylhexane-1-sulfonic acid]",<20%
10,"CC(C)C[C@@H](N)/C=C/S(=O)(=O)O [Compound N74, (1E,3R)-3-amino-5-methylhex-1-ene-1-sulfonic acid]",<20%
11,"COc1ccc2c(c1OC)CCC2NCCCS(=O)(=O)O (stereo not drawn) [Compound N77, 3-[(4,5-dimethoxyinadan-1-yl)amino)propane-1-sulfonic acid]",<20%
12,"CC(C)(C)C(CN)CS(=O)(=O)O (stereo not drawn) [Compound N78, 2-(aminomethyl)-3,3-dimethylbutane-1-sulfonic acid]",20%-40%
13,"CC(C)C[C@H](N)/C=C/S(=O)(=O)O [Compound N79, (1E,3S)-3-amino-5-methylhex-1-ene-1-sulfonic acid]",<20%
14,"CC(C)C[C@H](N)CCS(=O)(=O)O [Compound N82, (3S)-3-amino-5-methylhexane-1-sulfonic acid]",>40%
15,"NCCC(Cc1cccs1)S(=O)(=O)O (stereo not drawn) [Compound N84, 4-amino-1-(2-thienyl)-2-butanesulfonic acid]",<20%
16,"NCCC(Cc1cccs1)(Cc1cccs1)S(=O)(=O)O [Compound N85, 4-amino-1-(2-thienyl)-2-(2-thienylmethyl)-2-butanesulfonic acid]",20%-40%
17,"CC(C)(C)NCCC(Cc1cccs1)S(=O)(=O)O (stereo not drawn) [Compound N86, 4-(tert-butylamino)-1-(thien-2-yl)butane-2-sulfonic acid]",20%-40%
18,"CC(CCNC(C)(C)c1cccs1)S(=O)(=O)O (stereo not drawn) [Compound N87, 4-[2-(2-thien-2-ylpropyl)amino]-2-butanesulfonic acid]",20%-40%
19,"CCC(CC)(CC)NCCCS(=O)(=O)O [NM, 3-[(1,1-diethylpropyl)amino]-1-propanesulfonic acid]",<20%
20,"CC(C)CC(C)NCCCS(=O)(=O)O (stereo not drawn) [NP, 3-[(1,3-dimethylbutyl)amino]-1-propanesulfonic acid]",<20%
21,"CC[C@@H](C)NCCCS(=O)(=O)O [OQ, (R)-(−)-3-(1-methylpropylamino)-1-propanesulfonic acid]",<20%
22,"CC[C@H](C)NCCCS(=O)(=O)O [PJ, (S)-(+)-3-(1-methylpropylamino)-1-propanesulfonic acid]",<20%
23,"COc1ccc(C(=O)CNCCCS(=O)(=O)O)cc1 [QD, 3-{[2-(4-methoxyphenyl)-2-oxoethyl]amino}-1-propanesulfonic acid]",<20%
